The values that follow come from paper PMC10256215.

The chains behind the UniProt entries cited, without tags or fusion partners.
UniProt O95292: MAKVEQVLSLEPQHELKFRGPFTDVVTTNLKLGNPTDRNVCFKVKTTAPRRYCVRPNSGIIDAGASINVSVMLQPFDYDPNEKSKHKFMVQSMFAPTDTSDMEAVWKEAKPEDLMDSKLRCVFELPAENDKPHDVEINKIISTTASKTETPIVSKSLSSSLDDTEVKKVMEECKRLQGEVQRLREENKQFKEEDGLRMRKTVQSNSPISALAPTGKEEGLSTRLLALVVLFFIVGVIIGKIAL
UniProt O43493: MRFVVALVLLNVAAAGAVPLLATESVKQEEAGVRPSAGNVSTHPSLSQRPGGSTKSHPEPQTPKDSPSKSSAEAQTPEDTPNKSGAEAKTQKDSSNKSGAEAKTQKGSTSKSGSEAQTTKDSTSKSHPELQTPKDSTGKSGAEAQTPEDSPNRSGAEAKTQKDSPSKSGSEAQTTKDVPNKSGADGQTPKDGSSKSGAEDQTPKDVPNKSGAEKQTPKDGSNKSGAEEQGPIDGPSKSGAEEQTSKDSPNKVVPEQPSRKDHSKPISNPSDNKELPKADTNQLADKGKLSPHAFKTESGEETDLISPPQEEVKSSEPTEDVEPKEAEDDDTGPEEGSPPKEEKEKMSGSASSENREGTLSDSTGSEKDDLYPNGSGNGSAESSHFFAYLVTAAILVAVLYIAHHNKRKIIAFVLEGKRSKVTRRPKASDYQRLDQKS
UniProt Q9UBF8: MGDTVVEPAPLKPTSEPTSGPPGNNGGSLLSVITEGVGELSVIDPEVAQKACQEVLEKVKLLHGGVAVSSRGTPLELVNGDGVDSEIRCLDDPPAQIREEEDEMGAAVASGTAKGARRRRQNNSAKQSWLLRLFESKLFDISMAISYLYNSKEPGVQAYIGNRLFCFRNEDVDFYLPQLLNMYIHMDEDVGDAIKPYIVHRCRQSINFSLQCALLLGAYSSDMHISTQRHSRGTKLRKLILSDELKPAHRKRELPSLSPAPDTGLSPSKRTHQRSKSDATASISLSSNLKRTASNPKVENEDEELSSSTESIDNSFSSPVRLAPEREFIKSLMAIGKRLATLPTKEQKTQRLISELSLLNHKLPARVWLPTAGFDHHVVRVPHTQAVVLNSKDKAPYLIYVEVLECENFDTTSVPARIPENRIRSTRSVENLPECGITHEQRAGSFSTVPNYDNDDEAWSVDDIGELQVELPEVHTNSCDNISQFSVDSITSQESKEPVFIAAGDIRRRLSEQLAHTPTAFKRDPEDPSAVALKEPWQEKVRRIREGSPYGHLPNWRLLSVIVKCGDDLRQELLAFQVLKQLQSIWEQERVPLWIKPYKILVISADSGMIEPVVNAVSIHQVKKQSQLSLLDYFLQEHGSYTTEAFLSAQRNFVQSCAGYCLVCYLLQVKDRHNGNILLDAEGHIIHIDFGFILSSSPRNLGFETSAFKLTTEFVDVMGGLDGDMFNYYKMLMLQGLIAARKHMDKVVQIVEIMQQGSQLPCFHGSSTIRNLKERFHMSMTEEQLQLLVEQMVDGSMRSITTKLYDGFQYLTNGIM
UniProt Q9H3P7: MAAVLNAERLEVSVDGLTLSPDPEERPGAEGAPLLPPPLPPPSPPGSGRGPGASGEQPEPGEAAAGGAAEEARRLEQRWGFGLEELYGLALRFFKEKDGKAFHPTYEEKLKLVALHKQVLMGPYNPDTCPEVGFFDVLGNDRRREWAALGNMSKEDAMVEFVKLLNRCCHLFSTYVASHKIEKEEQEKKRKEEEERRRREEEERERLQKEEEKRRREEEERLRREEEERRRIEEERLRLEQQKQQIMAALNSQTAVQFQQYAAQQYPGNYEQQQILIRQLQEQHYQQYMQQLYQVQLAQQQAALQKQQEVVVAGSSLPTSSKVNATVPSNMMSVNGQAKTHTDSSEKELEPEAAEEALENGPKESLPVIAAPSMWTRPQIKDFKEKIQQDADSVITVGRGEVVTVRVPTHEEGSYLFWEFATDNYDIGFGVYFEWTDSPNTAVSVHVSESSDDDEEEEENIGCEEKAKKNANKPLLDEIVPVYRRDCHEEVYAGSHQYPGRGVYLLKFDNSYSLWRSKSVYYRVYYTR
UniProt P13164: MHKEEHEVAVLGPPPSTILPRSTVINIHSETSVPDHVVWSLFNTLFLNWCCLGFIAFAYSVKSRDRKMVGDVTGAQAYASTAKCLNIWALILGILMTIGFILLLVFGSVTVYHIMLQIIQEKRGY
UniProt Q01629: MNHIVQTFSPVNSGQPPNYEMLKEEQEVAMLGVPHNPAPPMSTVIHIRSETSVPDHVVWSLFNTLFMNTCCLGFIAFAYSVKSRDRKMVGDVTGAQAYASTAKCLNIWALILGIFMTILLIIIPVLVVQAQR
UniProt Q01628: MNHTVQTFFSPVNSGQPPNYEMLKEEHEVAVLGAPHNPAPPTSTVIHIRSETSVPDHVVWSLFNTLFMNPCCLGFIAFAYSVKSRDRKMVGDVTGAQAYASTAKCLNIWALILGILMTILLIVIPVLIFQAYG

Test [1] concerns the target AiV 2C (mammalian two-hybrid fusion) (Aichi virus (AiV)) (UniProt O91464). Kind of test: two-hybrid; mammalian two-hybrid (Checkmate, Promega) in Vero cells; pACT and pBIND fusions in both orientations with the pG5luc reporter; firefly/Renilla luciferase at 48 h as fold of the control with empty pACT or pBIND.
The target in test [2] is T1, SAC1 (mammalian two-hybrid fusion) (UniProt Q9NTJ5).
T1 sequence: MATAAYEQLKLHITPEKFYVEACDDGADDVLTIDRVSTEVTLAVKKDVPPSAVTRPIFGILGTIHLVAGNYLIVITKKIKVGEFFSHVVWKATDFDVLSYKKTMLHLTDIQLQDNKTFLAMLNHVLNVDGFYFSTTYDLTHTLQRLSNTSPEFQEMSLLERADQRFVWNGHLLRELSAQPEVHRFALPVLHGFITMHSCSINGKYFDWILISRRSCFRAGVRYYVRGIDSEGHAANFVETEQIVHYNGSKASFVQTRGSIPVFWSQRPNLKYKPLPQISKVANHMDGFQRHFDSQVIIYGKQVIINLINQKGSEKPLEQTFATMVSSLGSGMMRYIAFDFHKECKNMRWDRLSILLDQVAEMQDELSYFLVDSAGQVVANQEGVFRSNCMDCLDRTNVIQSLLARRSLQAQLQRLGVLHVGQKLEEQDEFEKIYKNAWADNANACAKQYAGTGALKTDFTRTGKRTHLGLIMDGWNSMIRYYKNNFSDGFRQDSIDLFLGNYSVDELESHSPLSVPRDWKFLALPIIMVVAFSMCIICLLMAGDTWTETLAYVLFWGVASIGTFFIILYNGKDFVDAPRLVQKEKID
The test is described as above.

For test [3], the target named is VAPB (mammalian two-hybrid fusion) (UniProt O95292). Described as above.
Test [4] deals with T2, AiV 3A (mammalian two-hybrid fusion) (Aichi virus (AiV)) (UniProt O91464).
T2 sequence: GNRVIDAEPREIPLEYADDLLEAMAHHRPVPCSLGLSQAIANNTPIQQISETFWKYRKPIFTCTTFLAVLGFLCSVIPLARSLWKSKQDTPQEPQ
Described as above.

For test [5], the target named is TGN46 (mammalian two-hybrid fusion) (UniProt O43493). The description is as above.
The target in test [6] is T3, VAPA (mammalian two-hybrid fusion) (UniProt Q9P0L0).
T3 sequence: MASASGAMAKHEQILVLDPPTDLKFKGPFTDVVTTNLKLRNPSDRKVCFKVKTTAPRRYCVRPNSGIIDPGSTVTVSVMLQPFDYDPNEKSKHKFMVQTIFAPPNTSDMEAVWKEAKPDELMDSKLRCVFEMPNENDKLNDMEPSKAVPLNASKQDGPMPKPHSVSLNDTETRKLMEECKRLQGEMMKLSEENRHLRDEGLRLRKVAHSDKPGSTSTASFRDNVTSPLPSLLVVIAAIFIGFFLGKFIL
The description is as above.

For test [7], the target named is AiV 2B (mammalian two-hybrid fusion) (Aichi virus (AiV)) (UniProt O91464). The description is as above.
A further test has as its target T4, HA-tagged OSBP (UniProt P22059).
T4 sequence: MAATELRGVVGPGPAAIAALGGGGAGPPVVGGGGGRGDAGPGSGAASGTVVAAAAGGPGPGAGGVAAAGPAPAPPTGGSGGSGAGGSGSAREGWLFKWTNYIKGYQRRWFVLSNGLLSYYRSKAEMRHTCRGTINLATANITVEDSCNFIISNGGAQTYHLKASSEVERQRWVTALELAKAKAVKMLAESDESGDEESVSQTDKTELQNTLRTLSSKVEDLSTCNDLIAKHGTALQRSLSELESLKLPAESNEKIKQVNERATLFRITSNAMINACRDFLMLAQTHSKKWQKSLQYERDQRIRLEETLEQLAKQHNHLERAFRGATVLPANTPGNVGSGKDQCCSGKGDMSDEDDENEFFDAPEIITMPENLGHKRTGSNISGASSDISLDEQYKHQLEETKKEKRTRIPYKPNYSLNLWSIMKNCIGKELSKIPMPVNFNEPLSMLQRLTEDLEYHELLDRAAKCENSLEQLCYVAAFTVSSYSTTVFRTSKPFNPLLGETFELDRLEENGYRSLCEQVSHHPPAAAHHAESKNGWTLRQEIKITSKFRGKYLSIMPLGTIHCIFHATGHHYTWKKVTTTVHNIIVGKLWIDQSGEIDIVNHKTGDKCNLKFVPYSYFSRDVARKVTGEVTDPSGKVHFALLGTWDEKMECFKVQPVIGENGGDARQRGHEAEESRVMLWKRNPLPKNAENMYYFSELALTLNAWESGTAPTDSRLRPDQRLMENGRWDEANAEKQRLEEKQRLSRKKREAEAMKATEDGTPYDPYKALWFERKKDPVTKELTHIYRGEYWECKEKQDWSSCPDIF
The experiment in a line: co-IP; 293T cells co-transfected for 24 h with FLAG- and HA-tagged constructs; IP with anti-FLAG, anti-HA or control IgG; immunoblot with anti-FLAG and anti-HA.

A further test concerns the target T5, HA-tagged VAPA (UniProt Q9P0L0).
T5 sequence: T3 sequence
Described as above.

The target of a further test is HA-tagged PI4KB (UniProt Q9UBF8). The test is described as above.
The target in the next test is T6, HA-tagged SAC1 (UniProt Q9NTJ5).
T6 sequence: T1 sequence
Described as above.

The target in another test is HA-tagged VAPB (UniProt O95292). Described as above.
A further test addresses HA-tagged ACBD3 (UniProt Q9H3P7). The test is described as above.
Test [8] concerns the target ACBD3 (mammalian two-hybrid fusion) (UniProt Q9H3P7). Kind of test: two-hybrid; mammalian two-hybrid (Checkmate, Promega) in Vero cells; pACT and pBIND fusions in both orientations with the pG5luc reporter; firefly/Renilla luciferase at 48 h as fold of the control with empty pACT or pBIND.
The target in test [9] is PI4KB (mammalian two-hybrid fusion) (UniProt Q9UBF8). The test is described as above.
For test [10], the target named is T7, OSBP (mammalian two-hybrid fusion) (UniProt P22059).
T7 sequence: T4 sequence
Described as above.

The next test addresses HA-tagged IFITM1 (human) (UniProt P13164). The experiment in a line: co-IP; 293T cells co-transfected for 24 h with FLAG- and HA-tagged constructs; IP with anti-FLAG, anti-HA or control IgG; immunoblot with anti-FLAG and anti-HA.
The target of test [11] is HA-tagged AiV 2B (Aichi virus (AiV)) (UniProt O91464). The test is described as above.
Test [12] addresses T8, HA-tagged AiV 3A (Aichi virus (AiV)) (UniProt O91464).
T8 sequence: T2 sequence
The test is described as above.

The target of test [13] is HA-tagged AiV 2C (Aichi virus (AiV)) (UniProt O91464). Described as above.
Another test has as its target T9, HA-tagged CERT (UniProt Q9Y5P4).
T9 sequence: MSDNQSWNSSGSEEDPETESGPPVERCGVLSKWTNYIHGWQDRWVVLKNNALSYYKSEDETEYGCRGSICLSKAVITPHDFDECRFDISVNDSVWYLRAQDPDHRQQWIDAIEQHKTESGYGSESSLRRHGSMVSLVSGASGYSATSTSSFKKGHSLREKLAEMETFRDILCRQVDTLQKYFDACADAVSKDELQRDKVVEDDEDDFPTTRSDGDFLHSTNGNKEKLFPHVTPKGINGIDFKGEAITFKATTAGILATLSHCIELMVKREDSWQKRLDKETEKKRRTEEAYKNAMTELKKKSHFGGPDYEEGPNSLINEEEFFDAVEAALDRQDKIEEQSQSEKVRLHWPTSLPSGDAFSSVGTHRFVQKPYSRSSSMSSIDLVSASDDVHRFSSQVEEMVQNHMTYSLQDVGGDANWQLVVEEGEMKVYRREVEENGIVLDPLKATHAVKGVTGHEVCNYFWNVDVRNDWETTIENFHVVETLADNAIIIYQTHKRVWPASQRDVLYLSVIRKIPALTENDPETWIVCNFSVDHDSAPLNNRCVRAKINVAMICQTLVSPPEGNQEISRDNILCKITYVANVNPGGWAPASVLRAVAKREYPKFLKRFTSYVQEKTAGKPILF
The test is described as above.

Results are given in words; binding and its absence hold for the method and conditions named. For some of these results: In cells and extracts the contact can be indirect. Some binding calls cover weakened binding; strength is not graded here. For some of these results: Sequences can lack the tags named with a protein.

On to “IFITM1 (mammalian two-hybrid fusion) (from UniProt P13164 1-125)”, for which the binding entry in test [1] is listed as “binds”; in test [2], “binds”; in test [3], “binds”; in [4], “binds”; in test [5], “no binding”; in test [6], “binds”. Besides, in test [7], the binding entry is listed as “binds”.
As to “FLAG-tagged IFITM2 (from UniProt Q01629 1-132)”, the binding entry with HA-tagged OSBP, with HA-tagged VAPA, with HA-tagged PI4KB, with HA-tagged SAC1, with HA-tagged VAPB and with HA-tagged ACBD3 was “binds” each time.
Take “IFITM2 (mammalian two-hybrid fusion) (from UniProt Q01629 1-132)”: the binding result in test [2], in test [3], in test [8], in [9], in test [6] and in test [10] was “binds” each time.
As to “FLAG-tagged IFITM3 (from UniProt Q01628 1-133)”, the binding entry with HA-tagged OSBP, with HA-tagged VAPA, with HA-tagged PI4KB, with HA-tagged SAC1, with HA-tagged VAPB and with HA-tagged ACBD3 was “binds” in each case.
Turning to “IFITM3 (mammalian two-hybrid fusion) (from UniProt Q01628 1-133)”, the binding result in test [2], in test [3], in [8], in [9], in test [6] and in test [10] was “binds” throughout.
For the substance “FLAG-tagged PI4KB (from UniProt Q9UBF8 1-816) (enzyme)”, the binding entry with HA-tagged IFITM1 (human) was “binds”.
Take “FLAG-tagged IFITM1 (from UniProt P13164 1-125)”: the binding entry (in test [11]; with HA-tagged OSBP; with HA-tagged VAPA; with HA-tagged PI4KB; in test [12]; with HA-tagged SAC1) was “binds” each time. The binding result is recorded as “binds” in test [13], “binds” in the test with HA-tagged VAPB, “no binding” with HA-tagged CERT and “binds” with HA-tagged ACBD3.
“FLAG-tagged ACBD3 (from UniProt Q9H3P7 1-528)”: in the test with HA-tagged IFITM1 (human), the binding result is “binds”.
